The whole screen tested about 270,000 compounds, of which about 620 (0.23%) were called active. Inconclusive means that the source gave no clear call. Such entries were picked first, then a sample of the others. The call rests on the fitted dose curve; in most records, active means well fitted inhibition curve with a large enough effect in the polarisation, with a control signal flat (not every such curve was filed as active); inconclusive means small, poorly fitted or top-dose-only effect, or effect the other way, or a change in a side signal; inactive means no such curve, though single readings can be large or run the other way; the % refers to the polarisation. Potencies beside an inconclusive call are fits to weak or partial responses and may not hold up. “Side channel” marks fits to a control or component signal instead of the main read-out.
The compounds below were run against Menin (Homo sapiens) (UniProt O00255) (assay: qHTS Assay for Inhibitors Targeting the Menin-MLL Interaction in MLL Related Leukemias: Competition With Texas Red Labeled MLL-derived Mutant Peptide). Settings: fluorescence polarization; FP activity change, negative = inhibition: at 61.6 µM (top of the series).
Sequence of UniProt O00255 (O00255 whole entry, looked up): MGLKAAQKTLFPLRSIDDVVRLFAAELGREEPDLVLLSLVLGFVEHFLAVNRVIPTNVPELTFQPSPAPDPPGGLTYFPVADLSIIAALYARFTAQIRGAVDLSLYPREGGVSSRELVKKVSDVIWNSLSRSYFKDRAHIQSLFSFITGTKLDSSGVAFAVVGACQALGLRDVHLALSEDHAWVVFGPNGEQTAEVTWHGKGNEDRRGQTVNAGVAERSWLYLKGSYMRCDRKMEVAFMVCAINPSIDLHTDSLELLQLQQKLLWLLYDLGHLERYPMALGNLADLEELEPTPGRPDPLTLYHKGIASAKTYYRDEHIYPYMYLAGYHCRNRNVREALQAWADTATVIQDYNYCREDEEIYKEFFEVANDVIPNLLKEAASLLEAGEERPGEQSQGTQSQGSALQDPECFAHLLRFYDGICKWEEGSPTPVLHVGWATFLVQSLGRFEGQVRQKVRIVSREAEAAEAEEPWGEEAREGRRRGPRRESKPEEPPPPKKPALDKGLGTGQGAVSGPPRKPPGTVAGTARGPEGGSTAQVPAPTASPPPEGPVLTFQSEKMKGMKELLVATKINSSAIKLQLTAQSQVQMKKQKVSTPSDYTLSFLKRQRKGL
Potency means the concentration at half of the fitted maximal effect; tags describe the fitted curve by direction and shape or compound fluorescence and quenching.
Wherever FP activity change, negative = inhibition is given: % of control where 0% means no effect.

SMILES | Potency | FP activity change, negative = inhibition
c1ccc2c(c1)CC/C2=N/Nc1nc2ccccc2[nH]1 | inconclusive: 22.4 µM [quencher, side channel, partial curve] | –
CC12CCC(C(=O)Nc3cccc(NC(=O)C45CCC(C)(C(=O)O4)C5(C)C)n3)(OC1=O)C2(C)C | inconclusive: 25.1 µM [inhibitor, partial curve] | –
COCCc1nnc(NC(=O)C23CC4CC(CC(C4)C2)C3)s1 | inconclusive: 22.4 µM [inhibitor, partial curve] | –
NCCCC[C@H](N)C(=O)N[C@@H](CCCN=C(N)N)C(=O)N1CCC[C@H]1C(=O)N1CCC[C@H]1C(=O)NCC(=O)N[C@@H](Cc1ccccc1)C(=O)N[C@@H](CO)C(=O)N1CCC[C@H]1C(=O)N[C@@H](Cc1ccccc1)C(=O)O | – | inactive: 10.1%
CCc1ccc(/C=C(\C)C(=O)c2c(C)cc(C)[nH]c2=O)cc1 | inconclusive: 7.08 µM [fluorescent, side channel, partial curve] | –
Nc1nc2cc3ccccc3cc2[nH]c1=O | inconclusive: 50.1 µM [inhibitor, partial curve, poor fit] | –
C/C(=N\N=C(N)N)c1ccc(Cl)c(Cl)c1 | inconclusive: 25.1 µM [fluorescent, side channel, single point] | –
Cc1ccc(NC(=O)CCn2nc(C)cc2C)c(C)c1 | inconclusive: 3.16 µM [inhibitor, full curve, poor fit] | –
Oc1ccc(Br)cc1CNc1cnc2ccccc2c1 | inconclusive: 14.1 µM [quencher, side channel, partial curve] | –
Cc1sc(NC(=S)Nc2ccc(F)cc2)c(C(N)=O)c1C | inconclusive: 17.8 µM [quencher, side channel, partial curve] | –
O=[N+]([O-])c1cc([N+](=O)[O-])c2nonc2c1Nc1ccc(O)cc1 | inconclusive: 22.4 µM [quencher, side channel, partial curve] | –
O=C(CSc1nc2c(sc3ccccc32)c(=O)n1CCCN1CCOCC1)NC1CCCC1 | inconclusive: 1.26 µM [inhibitor, partial curve] | –
COc1cccc(C(=O)N2CCN(Cc3ccccn3)CC2)c1 | inconclusive: 25.1 µM [inhibitor, single point] | –
O=C(COC(=O)[C@@H]1CC(O)CN1S(=O)(=O)c1ccccc1[N+](=O)[O-])Nc1ccc2ccccc2c1 (some centres undefined) | inconclusive: 10 µM [quencher, side channel, partial curve] | –
COc1ccccc1N(C)S(=O)(=O)c1ccc(C(=O)Nc2ccc(N3CCOCC3)cc2)cc1 | inconclusive: 12.6 µM [quencher, side channel, partial curve] | –
COc1ccc(C(=O)NC(Nc2ccccc2)C(Cl)(Cl)Cl)cc1 (centres undefined) | inconclusive: 31.6 µM [quencher, side channel, single point] | –
CCOc1ccc(NC(=O)c2ccc(NC(=S)NC3CCCCC3)cc2)cc1 | inconclusive: 31.6 µM [inhibitor, partial curve, poor fit] | –

SMILES | Potency | FP activity change, negative = inhibition
COc1ccc(NC(=O)Nc2sc(NS(=O)(=O)c3ccccc3)nc2C)cc1 | inconclusive: 25.1 µM [quencher, side channel, partial curve] | –
CCOC(=O)C1=C(CC)Nc2ccccc2N/C1=N\S(=O)(=O)c1cc(Br)ccc1Br | inconclusive: 8.91 µM [quencher, side channel, full curve, poor fit] | –
Cc1ccc(C(CNC(=O)Nc2cccc(C)c2)N2CCN(C)CC2)cc1 (centres undefined) | inconclusive: 35.5 µM [inhibitor, single point] | –
Cc1ccc(C(=O)COC(=O)c2cn(-c3ccccc3)nc2-c2ccccc2)cc1[N+](=O)[O-] | inconclusive: 39.8 µM [inhibitor, single point] | –
CCCS(=O)(=O)Nc1cccc(-c2cn3c(n2)SCC3)c1 | inconclusive: 0.794 µM [quencher, side channel, full curve, poor fit] | –
CC1CCN(S(=O)(=O)c2ccc3[nH]c(=O)c(=O)[nH]c3c2)CC1 | inconclusive: 22.4 µM [inhibitor, partial curve, poor fit] | –
Fc1cccc2sc(Nc3nc4cc5c(cc4s3)OCO5)nc12 | inconclusive: 12.6 µM [quencher, side channel, partial curve] | –
Cc1ccc(-c2nc3ccccn3c2Nc2ccccc2)o1 | – | inactive: -18%
CSc1nc2ccc(NS(=O)(=O)c3c(Cl)cccc3Cl)cc2s1 | inconclusive: 31.6 µM [quencher, side channel, single point] | –
Cc1ccc2oc(=O)n(CCCOc3ccccc3)c2c1 | inconclusive: 31.6 µM [fluorescent, side channel, single point] | –
CCN1CCN(C(=O)c2ccc3c(c2)c(C)c(C)n3Cc2ccccc2)CC1 | inconclusive: 17.8 µM [fluorescent, side channel, partial curve] | –
Cn1c(/C=N/Nc2nc3ccccc3[nH]2)nc2ccccc21 | inconclusive: 35.5 µM [quencher, side channel, single point] | –
O=C(O)c1ccccc1Nc1cc(Cl)cc(Cl)c1 | inconclusive: 22.4 µM [quencher, side channel, single point] | –
NC(=O)c1ccccc1NC(=O)/C=C/c1c(Cl)cccc1Cl | inconclusive: 12.6 µM [quencher, side channel, partial curve] | –
N/C(=N\c1nc(C(F)(F)F)cc(=O)[nH]1)Nc1ccc(Cl)cc1 | inconclusive: 31.6 µM [fluorescent, side channel, single point] | –
O=C(CCS(=O)(=O)c1ccccc1)Nc1ccc(-c2nc3ccccc3s2)c(O)c1 | inconclusive: 12.6 µM [inhibitor, partial curve] | –
Cc1cccc(CS(=O)(=O)Cc2ccc(C(=O)NCCCN3CCCC3)o2)c1 | inconclusive: 20 µM [fluorescent, side channel, partial curve] | –
